In a compilation of properties of binary mixtures (doi:10.1021/jp202828z):
Some of these densities may be calculated back from excess volumes.

Assay: xn = mol fraction of the nth substance listed
Conditions: 101 kPa

CCCO + CCCC[n+]1ccccc1.F[B-](F)(F)F
x1 = 1
Conditions | mass density [kg/m3]
298.15 K | 799.5
318.15 K | 784.7

CCCC[n+]1ccccc1.F[B-](F)(F)F + CO
mass density [kg/m3]
Conditions | 298.15 K | 318.15 K
x2 = 0 | 1214.1 | 1200.2
x2 = 0.0549 | 1209 | –
x2 = 0.0975 | 1204.7 | –
x2 = 0.1069 | – | 1189.9
x2 = 0.1459 | – | 1185.6
x2 = 0.2036 | 1192.8 | –
x2 = 0.3009 | 1179.5 | –
x2 = 0.3129 | – | 1163.4
x2 = 0.4086 | – | 1147.1
x2 = 0.5036 | 1141.6 | –
x2 = 0.508 | – | 1125.7
x2 = 0.596 | 1116.7 | –
x2 = 0.6069 | – | 1098.5
x2 = 0.6994 | 1078.6 | –
x2 = 0.7007 | – | 1062.8
x2 = 0.749 | 1054.9 | –
x2 = 0.8003 | 1024.6 | –
x2 = 0.8017 | – | 1007.7
x2 = 0.8508 | 987.1 | –
x2 = 0.8531 | – | 968.5
x2 = 0.8993 | 940.6 | –
x2 = 0.9022 | – | 920.8
x2 = 0.9516 | – | 856.8

CCCC[n+]1ccccc1.F[B-](F)(F)F + CCCO
mass density [kg/m3]
Conditions | 298.15 K | 318.15 K
x1 = 0.0024 | 802.6 | –
x2 = 0 | 1214.1 | 1200.2
x2 = 0.0266 | – | 1194.4
x2 = 0.0563 | – | 1189.3
x2 = 0.1254 | – | 1176.8
x2 = 0.1561 | 1185.6 | –
x2 = 0.1743 | – | 1167.1
x2 = 0.2037 | 1175.8 | –
x2 = 0.2849 | – | 1142.8
x2 = 0.3093 | 1151.8 | –
x2 = 0.3984 | 1128.3 | –
x2 = 0.4039 | – | 1112.1
x2 = 0.4665 | 1108.2 | –
x2 = 0.4918 | – | 1085.2
x2 = 0.7071 | – | 998.3
x2 = 0.8242 | – | 932
x2 = 0.9186 | – | 862.4
x2 = 0.9552 | – | 830.1
x2 = 0.9656 | – | 820
x2 = 0.973 | – | 812.7
x2 = 0.9781 | – | 807.8

CCCCO + CCCC[n+]1ccccc1.F[B-](F)(F)F
x1 = 1
Conditions | mass density [kg/m3]
298.15 K | 805.9
318.15 K | 790.3

CCCC[n+]1ccccc1.F[B-](F)(F)F + O
Conditions | mass density [kg/m3]
298.15 K, x2 = 0.1932 | 1206.4
298.15 K, x2 = 0.309 | 1201
298.15 K, x2 = 0.3952 | 1195.6
298.15 K, x2 = 0.6045 | 1178.2
298.15 K, x2 = 0.7062 | 1164.2
298.15 K, x2 = 0.8516 | 1127.7
298.15 K, x2 = 0.9013 | 1105.3
318.15 K, x2 = 0 | 1200.2
318.15 K, x2 = 0.0715 | 1197.4
318.15 K, x2 = 0.1455 | 1194.5
318.15 K, x2 = 0.2168 | 1191.6
318.15 K, x2 = 0.3236 | 1185.8
318.15 K, x2 = 0.4039 | 1181.1
318.15 K, x2 = 0.5126 | 1172.9
318.15 K, x2 = 0.6087 | 1163.2
318.15 K, x2 = 0.754 | 1140.8
318.15 K, x2 = 0.8529 | 1112.9
318.15 K, x2 = 0.9008 | 1091.3

CO + CCCC[n+]1ccccc1.F[B-](F)(F)F
x1 = 1
Conditions | mass density [kg/m3]
298.15 K | 786.8
318.15 K | 767.8

CCCC[n+]1ccccc1.F[B-](F)(F)F + CCCCO
mass density [kg/m3]
Conditions | x1 = 0.0025 | x1 = 0.0047 | x2 = 0 | x2 = 0.1037 | x2 = 0.1548 | x2 = 0.2039 | x2 = 0.2503 | x2 = 0.3002 | x2 = 0.301 | x2 = 0.407
298.15 K | – | – | 1214.1 | 1192.1 | 1180.4 | 1168.7 | 1156.9 | 1143.6 | – | –
318.15 K | 792.6 | 794.5 | 1200.2 | – | – | – | – | – | 1130.3 | 1099.5

CCCC[n+]1ccccc1.F[B-](F)(F)F + CCO
mass density [kg/m3]
Conditions | 298.15 K | 318.15 K
x2 = 0 | 1214.1 | 1200.2
x2 = 0.1105 | – | 1184.6
x2 = 0.1761 | – | 1174.1
x2 = 0.2115 | 1181.8 | –
x2 = 0.2133 | – | 1167.8
x2 = 0.2991 | 1165.2 | –
x2 = 0.3101 | – | 1148.6
x2 = 0.3544 | 1153.5 | –
x2 = 0.3992 | 1143 | –
x2 = 0.4062 | – | 1127
x2 = 0.5018 | 1114.5 | –
x2 = 0.5077 | – | 1098.6
x2 = 0.6003 | 1081.1 | –
x2 = 0.6124 | – | 1061.8
x2 = 0.6992 | 1038.5 | –
x2 = 0.702 | – | 1022.1
x2 = 0.799 | 981.2 | –
x2 = 0.8037 | – | 962.8
x2 = 0.852 | 942.4 | –
x2 = 0.8539 | – | 926.1
x2 = 0.904 | – | 881.9
x2 = 0.9041 | 897.3 | –
x2 = 0.9506 | 848.9 | –
x2 = 0.9509 | – | 832.3

CCO + CCCC[n+]1ccccc1.F[B-](F)(F)F
x1 = 1
Conditions | mass density [kg/m3]
298.15 K | 785.2
318.15 K | 767.8
